# The campaign covered roughly 52,000 compounds. About 1,700 (3.3%) were called active. No stated cut-off is given here; in the data, active means survival mostly below about 52% (no sharp cut-off); inactive means mostly above about 56%. The list shows a part of the results.
# Test system: Wild type
# Assay: growth inhibition of S. aureus wild type versus tarO mutant, primary screen, teichoic acid synthesis inhibitors, RN4220, OD600 (AID 463173)
# Conditions: S. aureus RN4220 wild type/DeltatarO growth, OD600, 18 h, hits give low values, screened at 18.75 µg/mL (by protocol)
row,SMILES,survival
1,CCOc1ccc(CNC(=O)C2CCN(S(=O)(=O)c3ccc4c(ccn4C)c3)CC2)cc1,inactive: 75%
2,Cc1nn(CC(=O)NCC(C)c2ccccc2)c(=O)c2cc3ccccc3n12 (stereo not given),inactive: 85%
3,COc1cc2oc(=O)c(CC(=O)NCc3ccc(OC)c(OC)c3)c(C)c2cc1Cl,inactive: 85%
4,Cc1ccc(-c2noc(-c3ccc(N4CCCCC4C)c([N+](=O)[O-])c3)n2)cc1 (stereo not given),inactive: 83%
5,CCCCn1c(=O)c2oc3ccccc3c2n(Cc2cccc(C)c2)c1=O,inactive: 88%
6,Cc1c(Cl)cccc1NC(=O)c1cc2sccc2n1Cc1ccc(F)cc1,inactive: 103%
7,COc1ccc(N(C)C(=O)c2nc(-c3cccc(F)c3)n3c2CCCCC3)c(OC)c1,inactive: 95%
8,Cc1c(C(=O)Nc2ccc(-c3nc4cc(Cl)ccc4o3)cc2)oc2ccccc12,inactive: 129%
9,Cc1ccc(-c2cc(-c3coc4ccccc4c3=O)c3c(n2)-c2ccccc2OC3)cc1,inactive: 81%
10,Cc1c(-c2cccc(NC(=O)Nc3ccccc3)c2)nc2ncccn12,inactive: 64%
11,Cc1ccc(S(=O)(=O)N2CCc3cc(C(=O)NCCc4ccccc4)ccc32)cc1,inactive: 118%
12,CCOc1ccc(NC(=O)CN2CCN(C3CCCCC3)C(=O)C2=O)cc1,inactive: 83%
13,CCS(=O)(=O)N1CCC2(CC1)OC(=O)C(C)=C2C(=O)NCc1ccccc1C,inactive: 88%
14,N#Cc1ccc2c(c1)nc1c3cccc4cccc(c(=O)n21)c43,inactive: 119%
15,Cc1cc(-c2ccc(S(=O)(=O)NCc3ccccc3Cl)s2)on1,inactive: 121%
16,CC(C)OC(=O)/C(C#N)=C\c1cccn1C,inactive: 111%
17,N#CCNC(=O)c1cccc(I)c1,inactive: 116%
18,COc1cccc(Cn2c(=O)cc(C)c3c(C)nn(-c4ccc(C)cc4)c32)c1,inactive: 80%
19,CCCCNCc1cccn1-c1sc2c(c1C#N)CCCC2,inactive: 109%
20,Cc1cccc(N2C(=O)C(CC(=O)Nc3ccc(F)cc3)N(C3CCCC3)C2=O)c1 (stereo not given),inactive: 134%
21,Cc1ccc(S(=O)(=O)n2nc(-c3ccccc3)nc2NCc2ccccc2Cl)cc1,inactive: 82%
22,COc1ccc(CNC(=O)C(OC(C)=O)c2ccccn2)cc1 (stereo not given),inactive: 96%
23,Cc1cc(C)c(C#N)c(NC2CCCCC2)n1,inactive: 92%

row,SMILES,survival
1,Cc1oc2ccc(O)c(CN3CCN(C)CC3)c2c1C(=O)Nc1ccc(C(C)C)cc1,inactive: 112%
2,Cc1cc2c(cc1C)CN(c1cccc(C(=O)N/N=C/c3ccco3)c1)C2,inactive: 119%
3,Cc1ccc(-c2cc(C(=O)N3CCN(S(=O)(=O)c4ccc(Br)s4)CC3)[nH]n2)cc1C,inactive: 84%
4,Cc1ccc(C)c(NC(=O)Cn2c(=O)n(Cc3nc(C)no3)c(=O)c3cc4c(cc32)OCO4)c1,inactive: 72%
5,COc1ccc(CNc2nc(-c3ccco3)nn2S(=O)(=O)c2ccc3ccccc3c2)cc1OC,inactive: 80%
6,Cc1cc(C)n2nc(NCc3ccccc3Cl)nc2n1,inactive: 87%
7,CCc1ccc(NC(=O)Cn2c(=O)n(Cc3ccc4c(c3)OCO4)c(=O)c3oc4ccccc4c32)cc1,inactive: 85%
8,CCc1c(C)nc2cc(-c3cc(OC)cc(OC)c3)nn2c1NCCO,inactive: 111%
9,Cc1cc2oc(C(=O)NCCc3ccc(S(N)(=O)=O)cc3)cc(=O)c2cc1C,inactive: 90%
10,CC(=O)Nc1ccc(NC(=O)CSc2cn(CC(=O)N(C(C)C)C(C)C)c3ccccc23)cc1,inactive: 97%
11,Cc1ccc(-c2noc(CN(C3CCCCC3)S(=O)(=O)c3ccc(F)cc3)n2)cc1,inactive: 84%
12,COC(=O)c1cc2occc2n1Cc1nc(-c2ccccc2C)oc1C,inactive: 76%
13,COc1cc(C(=O)NCc2nnnn2-c2ccc(C)c(C)c2)cc(OC)c1OC,inactive: 73%
14,CCC(=O)N1CCc2cc(S(=O)(=O)NC(Cc3ccccc3)C(=O)NCc3ccc(C)cc3)ccc21 (stereo not given),inactive: 104%
15,COc1ccc(OCCn2cc(C(=O)c3ccco3)c3ccccc32)cc1,inactive: 62%
16,CCOc1ccccc1CN1C(=O)c2ccccc2C1C(=O)NC1CCCCCC1 (stereo not given),inactive: 87%
17,Cc1ccccc1COC(=O)c1ccc(-c2nnn(Cc3ccccc3F)n2)cc1,inactive: 72%
18,CCN1CCN(C(=O)c2ccc3c(c2)N(Cc2c(F)cccc2Cl)C(=O)c2ccccc2S3)CC1,inactive: 79%
19,COc1ccc(-c2nc(C)c(CCNC(=O)c3ccco3)s2)cc1,inactive: 82%
20,CC(C)c1ccc(NC(=O)CSC2=Nc3ccccc3C3=NC(CCC(=O)NCc4ccc(F)cc4)C(=O)N23)cc1 (stereo not given),inactive: 83%
21,CCC(C)Sc1nc2c([nH]c3ccccc32)c(=O)n1C (stereo not given),inactive: 100%
22,CC(=O)N1c2ccc(S(=O)(=O)N3CCN(c4cc(Cl)ccc4C)CC3)cc2CC1C (stereo not given),inactive: 112%

# From PubChem BioAssay AID463173 (ICCB-Longwood Screening Facility, Harvard Medical School, 2010)
